Source: PubChem BioAssay AID1508624 (National Center for Advancing Translational Sciences (NCATS), 2021)
Out of some 48,000 compounds screened, about 120 (0.25%) were called active. Another 4% or so got no clear call; they are omitted. Calls follow the shape of the dose curve; as a rule, active = well fitted activation curve with a large enough effect; inconclusive = small, poorly fitted or top-dose-only effect, or another doubt; inactive = no such curve, though single readings can be large or run the other way. This is one part of the list.

Test: Primary qHTS for Identification of Small Molecule Activators of Huntingtin-Antisense Promoter Activity; also: nearly all actives have a fitted effect of over 55% in size
Conditions: HEK293 HTT-AS promoter firefly luciferase reporter (activity 0% = vehicle and -100% = no light), 24 h; series mostly up to 57.5 µM; activity change, positive = activation: at the top concentration
Summary of the method: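 Firefly luciferase signal from promoter-reporter HEK293 cells was scaled between vehicle (0%) and zero RLU (-100%). Compounds were tested at final concentrations of up to 57.5 uM over 24 h at 37 degrees C. PTC124 at 50 uM final served as control inhibitor.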

Activity change, positive = activation, inactive:
CCN(CC)C(=O)Cn1ncc2c([nH]c3ccc(C)cc32)c1=O -5.83%, CCOc1ccccc1CNC(=O)C1CCN(C(=O)N2CCOc3ccc(Cl)cc32)CC1 -28.8%, Cc1ccc(-n2nc(C(=O)NCc3ccc(F)cc3Cl)c3c4ccccc4n(C)c3c2=O)cc1 8.63%, FC(F)(F)c1ccc2c(c1)ncc1c(-c3ccccc3)nn(-c3ccccc3)c12 -7.45%, Cc1nc(-c2cccc(F)c2)sc1CCNC(=O)C(=O)Nc1ccc2c(c1)OCCO2 -32.6%, Cc1ccccc1C(=O)Nc1ccccc1-c1nc(-c2ccccc2)no1 11.1%, CCc1nc2nc(C)c(NS(=O)(=O)c3ccc(F)c(C)c3)c(=O)n2[nH]1 -12.9%, Cc1ccc(NC(=O)CSc2nc3ccccc3n2CC(=O)N(C)C2CCCCC2)cc1C -12.6%, CC(C(=O)Nc1ccccc1)n1nnc2sc3c(c2c1=O)CCCC3 (stereo unspecified) -24.5%, Cc1cccc(Cn2c(=O)n(Cc3ccccc3)c(=O)c3sc4ccccc4c32)c1 -2.13%, CCCCn1c(CNC(=O)C23CC4CC(CC(C4)C2)C3)nnc1SCC(=O)Nc1ccc(F)cc1 -34%, Cc1cccc(NC(=O)Nc2nnc(N3CCCC3)s2)c1 0.656%, Cc1cc(C(=O)NCc2ccccc2)c2c(C)nn(-c3cccc(Cl)c3C)c2n1 -15.9%, Cc1ccc(NC(=O)C2CCCN2S(=O)(=O)c2ccc3nc(-c4ccccc4)[nH]c3c2)cc1C (stereo unspecified) -26%, CC(C)C(=O)Nc1cccc(C(=O)Nc2nnc(C(F)(F)F)s2)c1 15.1%, CCOc1ccccc1NC(=O)CCc1c(C)nc2cc(-c3ccccc3)nn2c1C -65.8%, Cc1ccc(NC(=O)CN(c2ccc(C)cc2)S(=O)(=O)c2cccc3nonc23)cc1 -14%, CCOCCCn1c(=N)c(C(=O)NCc2ccccc2)cc2c(=O)n3ccccc3nc21 0.21%, COc1cccc(NC(=O)Cn2c(=O)n(CCc3cccc(C)c3)c(=O)c3ccccc32)c1 -7.63%, Cc1cccc(NC(=O)c2c(NC(=O)c3ccco3)sc3c2CCC(C)C3)c1 (stereo unspecified) -8.63%, COc1cccc(CNC(=O)c2ccc3c(c2)nc2n3CCC(C)C2)c1 (stereo unspecified) 29.5%, COc1ccc(-n2nc(-c3ccc(C)cc3)c3cnc4cc(F)c(F)cc4c32)cc1 -9.72%, Cc1ccc(NC(=O)Cn2nc(-c3ccccc3)nc(Cc3ccccc3)c2=O)cc1 -3.09%, CCCN(CCC)C(=O)c1nn(C)c2c1CSc1ccccc1-2 2.44%, O=C(NCc1ccccc1Cl)c1ccc(-n2cnc3cccnc32)cc1 -9.1%, CCOc1ccccc1NC(=O)Cn1nc(N2CCN(c3ccccc3)CC2)ccc1=O -22.7%, Cc1ccc(CNC(=O)CSCc2nc(-c3cccc(C)c3)oc2C)cc1 -12.5%, Cc1cn2c(=O)c(S(=O)(=O)NCc3ccc(F)cc3)c(C)nc2s1 -3.2%, O=C(CCC1N=C2c3ccccc3N=C(SCC(=O)NCCc3ccccc3)N2C1=O)NCc1ccc(F)cc1 (stereo unspecified) -0.607%, CCC(NC(=O)Nc1cccc(C)c1)c1c(-n2cccc2)sc2c1CCN(C)C2 (stereo unspecified) -5.58%, CCCN(CCC)C(=O)Cn1c(=O)n(-c2ccc(Cl)c(Cl)c2)c(=O)c2c(C)c(C(=O)N(C)C)sc21 -13.6%, CCOc1ccc(OCC)c(NC(=O)C2CCCN(S(=O)(=O)c3ccc(C)cc3)C2)c1 (stereo unspecified) -14.4%, CCOc1ccc(-c2nnc(SCC(=O)N(CC)c3cccc(C)c3)o2)cc1 -28%, O=C(Cn1c(=O)n(-c2ccccc2Cl)c(=O)c2sc3ccccc3c21)NC1CCCC1 -14.1%, COc1ccccc1CNC(=O)CSc1cc(C)[nH]c(=O)n1 -9.41%, O=C(O)CCC(=O)c1ccc(-c2ccccc2)cc1 17.3%, COc1ccc(-c2c(C)nn3c(N4CCN(c5cc(Cl)ccc5C)CC4)cc(C)nc23)cc1OC -2.21%, Cc1ccc(S(=O)(=O)C(CNS(=O)(=O)c2ccc(F)c(C)c2)c2cccs2)cc1 (stereo unspecified) -31.2%, O=C(NCCS(=O)(=O)N1CCN(c2ccccc2F)CC1)C1CC(=O)N(c2ccc(F)cc2)C1 (stereo unspecified) -9.74%, CCc1ccccc1N(CC)C(=O)Cn1nc(Cc2ccncc2)c2ccccc2c1=O -35.8%, Cc1ccc(-n2cnc3cc(C(=O)NCCC4=CCCCC4)ccc32)cc1Cl -9.78%, Cc1ccc(OCC(=O)Nc2cccc3ccc(C)nc23)c(C)c1 13.9%, Cc1cccc(NC(=O)COc2ccc3oc4c(c3c2)CCCC4)c1 -20.5%, COc1ccc(CNC(=O)C(=O)NCC(c2cccs2)S(=O)(=O)c2cccs2)cc1 (stereo unspecified) -33%, O=C(CCc1nc(-c2cccs2)no1)Nc1ccc([N+](=O)[O-])cc1 -15%, CCc1cccc(C)c1NC(=O)Cn1ncc2c3ccccc3n(Cc3ccccc3)c2c1=O -3.3%, Cc1ccc(Cl)cc1Nc1nn2c(=O)c3ccc(C(=O)NC4CCCCC4)cc3nc2s1 -4.96%, COc1ccc(OC)c(NC(=O)CS(=O)(=O)Cc2nc(-c3ccc(C)cc3)oc2C)c1 -6.58%, CCCSc1ncnc2c1c(-c1ccccc1)cn2-c1ccccc1OC -15.4%, CCOc1ccc2c(c1)c(=O)c(S(=O)(=O)c1ccc(CC)cc1)cn2Cc1cccc(Cl)c1 0%, CN1CCN2c3ccccc3Cc3ccccc3C2C1 (stereo unspecified), COc1ccc(CNC(=O)c2ccc(CS(=O)(=O)c3ccc(Br)cc3)o2)cc1 -24.1%, CCCCOC(=O)c1ccc(Nc2nc3ccc(C(=O)c4ccccc4)cc3n3cnnc23)cc1 4.19%, CCOc1ccc(OCC)c(NC(=O)c2cc(-c3cccs3)nc3ccccc23)c1 0.4%, O=c1c2sccc2n(Cc2cc(=O)n3cc(Cl)ccc3n2)c(=O)n1-c1ccccc1 -15.4%, O=c1c(N2CCN(c3cccc(Cl)c3)CC2)csc2ccc(Cl)cc12 2.42%, CCCCCCCCOc1ccccc1C(=O)Nc1ccc(C(=O)OCC[N+](C)(CC)CC)cc1, COCCCNC(=O)C1CCN(c2nc3ccc(Cl)cc3[nH]2)CC1 5.5%, CC1=C(c2ccc(C(C)C)cc2)S(=O)(=O)NC1=NCc1ccc(Cl)cc1 -9.78%, Cc1ccc(CNC(=O)CCCc2nnc3n(CC(C)C)c(=O)c4sccc4n23)cc1 -5.72%, CCOC(=O)c1ccccc1NC(=O)c1nn(-c2ccc(OC)c(Cl)c2)c(=O)c2c1c1ccccc1n2C -3.59%, CCc1ccc2occ(CC(=O)Nc3ccc(C)c(C)c3)c2c1 -36.3%, Cc1sc2ncn(CC(=O)N3CCN(c4ccccc4)CC3)c(=O)c2c1S(=O)(=O)N1CCC(C)CC1 -16.6%, O=c1c2nncn2ccn1-c1ccc(F)c(F)c1 -7.48%, O=C(c1cc2cc3ccc(Cl)cc3nc2o1)N1CCN(c2cccc(Cl)c2)CC1 -0.301%, O=C(CN1C(=O)CSc2ccc(S(=O)(=O)N3CCCC3)cc21)NCc1ccc(F)cc1Cl -21.6%, Cc1cccc(NC(=O)N2CC=C(c3c[nH]c4ccccc34)CC2)c1C -11.7%, CCN(CC)C(=O)C1CCCN(c2ncnc3c2c(-c2ccccc2)cn3-c2cccc(C)c2)C1 (stereo unspecified) -33.4%, Cc1nc(-c2ccc(C)c(S(=O)(=O)N3CCC(C(=O)NCc4ccc(F)cc4)CC3)c2)no1 -38.3%, CCCCc1ncc(/C=C(\Cc2cccs2)C(=O)O)n1Cc1ccc(C(=O)O)cc1 -1.24%, O=S(=O)(c1ccc2nc(Nc3ccc(F)cc3)ccc2c1)N1CCCC1 -5.65%, Cc1ccc(C)c(CNC(=O)CN2C(=O)CSc3ccc(S(=O)(=O)N(C)C)cc32)c1 0.365%, O=C1NC2CCCCN2C12CCN(CCCN1c3ccccc3CCc3ccc(Cl)cc31)CC2 (stereo unspecified) -21.7%, COc1ccc(S(=O)(=O)N(CCc2ccccc2)CC(=O)Nc2cc(C)cc(C)c2)cc1OC -22.2%, COc1ccccc1N1CCN(S(=O)(=O)CCNC(=O)C(c2ccccc2)c2ccccc2)CC1 -34.3%, N[C@@H](Cc1ccc(O)c(O)c1)C(=O)O -1.6%, CCc1ccc(NC(=O)Cn2c(=O)n(CCc3ccccc3)c(=O)c3sc4ccccc4c32)cc1 -7.11%, CC(=O)c1cccc(N2C(=O)CN(S(C)(=O)=O)CC2(C)C(=O)NC2CCCC2)c1 (stereo unspecified) 0.13%, CCOC(=O)c1[nH]c(C)c(CCC(=O)Nc2cc(Cl)c(OC)cc2OC)c1C -27.3%, CCC(C)NC(=O)c1cn(CC)c2ccc(S(=O)(=O)N3CCc4ccccc4C3)cc2c1=O (stereo unspecified) -30.3%, Cc1ccc(CCNC(=O)c2ccc3c(c2)N(Cc2ccc(F)cc2)CCS3)cc1 -6.36%, Cc1cc(C)c(NC(=O)Cn2c(=O)n(CC(=O)NCCc3ccccc3)c(=O)c3ccccc32)c(C)c1 -5.19%, O=C(NC1CCCCCC1)c1ccc(CS(=O)c2cccc(Cl)c2)o1 (stereo unspecified) -16.4%, O=C(CSc1nc2ccccc2n1Cc1cccc(F)c1)N1CCN(c2ccc(F)cc2)CC1 -30.8%, O=C(NCc1ccccc1Cl)c1ccc2c(c1)N(Cc1ccccc1)CCS2 -13.7%, COc1ccc(NC(=O)c2cc3c(=O)n(Cc4cccnc4)ccc3nc2C)c(OC)c1 -5.8%, CN(C)CCc1c[nH]c2ccc(CS(=O)(=O)N3CCCC3)cc12, Cc1ccc2nc3c(cc(C(=O)NCc4ccco4)c(=N)n3C(C)C)c(=O)n2c1 7.28%, Cc1ccc(NC(=O)c2c(C)oc3ncn(CC(C)C)c(=O)c23)nc1 -18.8%, O=C(Nc1ccc(N2CCOCC2)c(C(=O)O)c1)c1ccc(Br)cc1 17.8%, CCc1ccc(OCc2ccccc2C(=O)Nc2ccc3nc(C)cc(N)c3c2)cc1 -66.1%, Cc1ccc(CNC(=O)Cn2ccn(-c3ccc(F)cc3)c(=O)c2=O)cc1 -6.56%, Cc1cccc(CN2C(=O)c3ccccc3S(=O)(=O)c3ccc(C(=O)NC4CCCCC4)cc32)c1 -13%, CCn1c(=O)c2cc(C(=O)NCCc3ccc(Cl)cc3)sc2c2ccccc21 -9.16%, Cc1ccc(N(C)C(=O)C2CCN(S(=O)(=O)c3cn(C)cn3)CC2)cc1 -4.59%, CCn1c(=O)c2sccc2n2c(CCC(=O)Nc3ccc(C(C)C)cc3)nnc12 -12%
